Earlier results in paper PMC3207004 (Clinical cancer research : an official journal of the …, 2011).

Conditions: canine model; reports, no reference given; cited from earlier work

CC1(C)CC(=O)c2c(C(F)(F)F)nn(-c3ccc(C(N)=O)c(N[C@H]4CC[C@H](OC(=O)CN)CC4)c3)c2C1 [PF-04929113]
Retinal damage in animal studies: potential of PF-04929113 to induce irreversible retinal damage
